Assay results published in PMC4336329 (PLoS ONE, 2015).
About 2,200 (0.71%) of roughly 310,000 compounds showed an effect of 50% or more. The effect is printed as a negative number. Some of the results follow.

What follows are molecules tested against human ether-à-go-go-related gene (hERG) potassium channel (human, UniProt Q12809) (assay: primary screen, population patch clamp on CHO cells stably expressing hERG).
Chain of human ether-à-go-go-related gene (hERG) potassium channel (Q12809 whole entry, looked up): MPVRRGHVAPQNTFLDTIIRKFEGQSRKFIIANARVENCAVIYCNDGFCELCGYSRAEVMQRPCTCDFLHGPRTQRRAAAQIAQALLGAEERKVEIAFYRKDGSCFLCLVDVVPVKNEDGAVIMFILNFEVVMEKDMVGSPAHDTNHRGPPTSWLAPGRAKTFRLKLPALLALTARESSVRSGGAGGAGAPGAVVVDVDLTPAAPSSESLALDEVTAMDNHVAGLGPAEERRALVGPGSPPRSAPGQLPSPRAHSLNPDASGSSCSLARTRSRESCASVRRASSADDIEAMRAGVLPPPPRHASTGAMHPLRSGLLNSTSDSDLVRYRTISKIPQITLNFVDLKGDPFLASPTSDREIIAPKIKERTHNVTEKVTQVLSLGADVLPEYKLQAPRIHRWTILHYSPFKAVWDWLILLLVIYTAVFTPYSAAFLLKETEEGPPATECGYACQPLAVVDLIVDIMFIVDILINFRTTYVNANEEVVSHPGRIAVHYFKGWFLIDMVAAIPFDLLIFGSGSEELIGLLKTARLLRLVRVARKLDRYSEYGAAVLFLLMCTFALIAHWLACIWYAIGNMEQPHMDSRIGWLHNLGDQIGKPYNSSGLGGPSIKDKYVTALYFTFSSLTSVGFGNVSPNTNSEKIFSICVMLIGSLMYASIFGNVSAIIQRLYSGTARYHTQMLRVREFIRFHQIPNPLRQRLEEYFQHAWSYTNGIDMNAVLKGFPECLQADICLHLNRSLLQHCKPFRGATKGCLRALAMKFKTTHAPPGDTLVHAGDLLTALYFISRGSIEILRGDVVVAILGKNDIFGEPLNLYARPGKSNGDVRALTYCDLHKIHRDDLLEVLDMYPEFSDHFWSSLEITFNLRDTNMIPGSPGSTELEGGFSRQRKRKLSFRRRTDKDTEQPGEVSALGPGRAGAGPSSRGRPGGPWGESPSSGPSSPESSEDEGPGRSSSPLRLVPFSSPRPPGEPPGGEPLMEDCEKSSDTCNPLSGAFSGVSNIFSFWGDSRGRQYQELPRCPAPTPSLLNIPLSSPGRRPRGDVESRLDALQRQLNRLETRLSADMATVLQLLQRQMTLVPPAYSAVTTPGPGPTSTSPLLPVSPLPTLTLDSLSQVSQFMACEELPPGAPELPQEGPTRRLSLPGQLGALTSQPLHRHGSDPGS

| SMILES | hERG current change (%, negative = inhibition) at 1uM [%] |
| --- | --- |
| CSc1nnc(-c2sc3cc(C(F)(F)F)cnc3c2-c2ccccc2)n1C | 5.73 |
| O=C(/C=C/c1ccco1)OCC(=O)c1cccc([N+](=O)[O-])c1 | 8.47 |
| CC(=O)C1=NN(c2ccccc2)C(c2cccs2)N1c1ccccc1 (centres unmarked) | 4.15 |
| COc1ccc(NC(=S)N2CCC(C(=O)c3ccc(C)cc3)CC2)cc1 | 6.92 |
| CC1CCCCC1NC(=O)C1CCN(C(=O)NC2CCCCC2)CC1 (centres unmarked) | -1.4 |
| N#Cc1ccccc1NC(=O)CN(Cc1ccccc1)Cc1ccccc1 | 13.9 |
| Cl.N=c1c2c(n(Cc3ccc(Cl)c(Cl)c3)c3c1CCC3)CCCC2 | 8.36 |
| CCN(CC)C(=O)CSc1nnc(-c2ccco2)n1N | -0.55 |
| COc1ccc(C(=O)NCCc2nnc3ccc(SCC(=O)NCc4ccccc4)nn23)cc1 | 16.7 |
| Cc1cc(C)cc(NC(=O)CSc2nnc(CN3CCOCC3)n2C)c1 | 2.84 |
| CSCCC(NC(=O)c1ccccc1Br)C(=O)NCc1ccc(F)cc1 (centres unmarked) | 2.12 |
| CCCn1c(=O)c(C(=O)NNC(=O)Cc2ccccc2)c(O)c2ccccc21 | 7.79 |
| COc1ccc2[nH]cc(C(=O)CN3CCCC(C)C3)c2c1 (centres unmarked) | 1.08 |
| CC(O)CN(CCC(N)=O)CCC(N)=O.O=C(O)C(=O)O (centres unmarked) | 15.6 |
| COc1ccccc1N1CCN(Cc2ccc(Br)s2)CC1 | 4.25 |
| Cc1ccc(OC(=O)c2ccccc2P(=O)(O)O)cc1 | 7.83 |
| Cc1cc(S(=O)(=O)Nc2c(C)nc3nc[nH]n3c2=O)ccc1F | 13.4 |
| O=C(CNC(=O)c1ccccc1)N/N=C/c1ccc([N+](=O)[O-])o1 | 5.33 |
| Cc1ccc2[nH]c(CN3CCC(CO)(CC4CCCCO4)CC3)c(C)c2c1 (centres unmarked) | -4.62 |
| COc1ccc2o/c(=N/NC(=O)c3cccs3)c(C(N)=O)cc2c1 | -8.36 |
| CCOc1ccc(N2C(=O)NC(=O)/C(=C\c3ccccc3[N+](=O)[O-])C2=O)cc1 | 10.1 |
| COc1cccc(CNC(=O)CCC2CCCN(C(=O)CCC(F)(F)F)C2)c1 (centres unmarked) | 4.96 |

| SMILES | hERG current change (%, negative = inhibition) at 1uM [%] |
| --- | --- |
| CC(C)=NNc1nc2c(c(=O)n(C)c(=O)n2C)n1C | 0.723 |
| CCC(=O)Oc1ccc2c(C)cc(=O)oc2c1C(=O)CC | 14.6 |
| NC(=O)c1cc([N+](=O)[O-])ccc1NCc1cccc2ccccc12 | 13.7 |
| Cc1cc(NC(=O)c2cccc([N+](=O)[O-])c2)n(-c2ccccc2)n1 | 7.59 |
| O=C(O)CCN1C(=O)/C(=C\c2ccc(OCc3ccccc3)c(OCc3ccccc3)c2)SC1=S | 14.6 |
| O=C(c1ccco1)c1cn(CC(=O)N2CCCc3ccccc32)c2ccccc12 | -1.79 |
| Cc1nc(SCC(O)CO)c([N+](=O)[O-])[nH]1 (centres unmarked) | 7.86 |
| Cc1cc(NC(=O)C(C)Oc2ccc(Cl)cc2Cl)n(-c2ccccc2)n1 (centres unmarked) | 8.48 |
| Cc1ccc(N)c(C)c1 | 2.92 |
| CN1C(=O)C2(C(C#N)=C(N)N(c3cc(Cl)cc(Cl)c3)C3=C2C(=O)CC(C)(C)C3)c2ccccc21 (centres unmarked) | -8.25 |
| Cc1cccc(/C=C2\Sc3ccc(C(=O)N4CCC(C(N)=O)CC4)cc3N(C)C2=O)c1 | 5.47 |
| CCCNc1cc(C)oc(=O)c1C(=O)CCC | 7.87 |
| O=C(Nc1cc(Cl)ccc1Cl)c1ccco1 | 13.4 |
| CCCC(=O)n1nc(-c2cccnc2)nc1N | -18.9 |
| O=C1c2ccccc2C(=O)N1Cc1cc(Cl)c(O)c([N+](=O)[O-])c1 | 15.3 |
| O=c1[nH]c(SCc2ccccc2F)nc2ccccc12 | 7.82 |
| COc1ccc(OCC(O)CN2C(=O)NC(C)(C)C2=O)cc1 (centres unmarked) | 15.8 |
| O=C(NOCc1ccccc1)c1ccccc1 | 13.1 |
| Cc1cc2cc(CNC(=O)c3ccco3)ccc2n1C | -6.68 |
| COc1cc(S(=O)(=O)Nc2ccccc2N2CCCCC2)ccc1NC(C)=O | -4.5 |
| COc1cc(OC)c(OC)cc1CN1CCN(S(=O)(=O)c2ccc(F)cc2)CC1.O=C(O)C(=O)O | 8.58 |
| Cc1[nH]c2ccccc2c1C(=O)COC(=O)C1CCC(=O)N1 (centres unmarked) | 10.5 |
